Laboratory results as given in article PMC4336329 (PLoS ONE, 2015).
Hit rate of the full screen: of about 310,000 compounds, about 14,000 (4.5%) showed an effect of 50% or more. Effects have a minus sign here. This is one part of the list.

What follows are molecules tested against human ether-à-go-go-related gene (hERG) potassium channel (human, UniProt Q12809) (assay: primary screen, population patch clamp on CHO cells stably expressing hERG).
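Also: peak tail current of the secondary pulse compared with the same well before compound.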

human ether-à-go-go-related gene (hERG) potassium channel, sequence (Q12809 whole entry, looked up): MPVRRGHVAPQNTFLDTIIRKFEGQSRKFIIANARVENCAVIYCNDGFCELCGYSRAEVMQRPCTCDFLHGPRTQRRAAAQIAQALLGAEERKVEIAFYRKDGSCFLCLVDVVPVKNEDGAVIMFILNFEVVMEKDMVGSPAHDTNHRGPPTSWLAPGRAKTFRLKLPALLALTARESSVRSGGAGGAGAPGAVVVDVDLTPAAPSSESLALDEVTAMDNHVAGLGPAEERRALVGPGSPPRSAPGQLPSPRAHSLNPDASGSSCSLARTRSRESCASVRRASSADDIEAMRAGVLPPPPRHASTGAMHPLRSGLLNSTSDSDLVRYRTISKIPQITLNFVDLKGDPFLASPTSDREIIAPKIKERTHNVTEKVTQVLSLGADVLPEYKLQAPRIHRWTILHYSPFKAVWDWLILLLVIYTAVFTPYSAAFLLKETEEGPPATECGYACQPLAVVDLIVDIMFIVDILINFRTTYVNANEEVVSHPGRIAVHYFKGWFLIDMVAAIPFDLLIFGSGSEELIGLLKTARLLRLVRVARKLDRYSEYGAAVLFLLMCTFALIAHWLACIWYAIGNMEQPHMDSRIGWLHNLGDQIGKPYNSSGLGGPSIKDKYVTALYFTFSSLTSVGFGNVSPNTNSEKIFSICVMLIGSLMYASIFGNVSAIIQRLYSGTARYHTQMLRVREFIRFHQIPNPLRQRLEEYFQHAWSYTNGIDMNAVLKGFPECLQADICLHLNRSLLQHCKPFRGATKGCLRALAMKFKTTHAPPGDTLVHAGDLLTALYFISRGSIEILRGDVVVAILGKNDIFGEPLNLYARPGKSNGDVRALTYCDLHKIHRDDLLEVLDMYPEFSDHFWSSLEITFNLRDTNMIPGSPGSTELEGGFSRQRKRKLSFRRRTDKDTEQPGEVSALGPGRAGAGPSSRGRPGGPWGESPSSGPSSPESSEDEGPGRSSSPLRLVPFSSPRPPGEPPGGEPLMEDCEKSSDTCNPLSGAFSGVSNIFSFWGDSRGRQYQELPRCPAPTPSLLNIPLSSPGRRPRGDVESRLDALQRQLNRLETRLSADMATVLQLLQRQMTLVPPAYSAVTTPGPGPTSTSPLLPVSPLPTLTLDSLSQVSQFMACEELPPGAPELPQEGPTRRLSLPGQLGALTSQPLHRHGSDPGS

Structure (SMILES)	hERG current change (%, negative = inhibition) at 10uM [%]
COc1ccccc1N1CCN(C(=O)c2ccc(NC3=NC4CS(=O)(=O)CC4S3)cc2)CC1 (stereo not shown)	1.39
COCCCn1c(=O)c2sccc2n2c(CCCC(=O)N(C)Cc3ccco3)nnc12	-22.8
COc1cc(-c2nc(-c3ccccc3)c(-c3cccs3)[nH]2)cc(OC)c1O	-7.38
CS(=O)(=O)O.Cc1c(C(=O)c2cccc3ccccc23)c2cccc3c2n1[C@H](CN1CCOCC1)CO3	-12.8
CC(C)c1ccc(NC(=O)c2ccccc2NC(=O)C2CCCCC2C(=O)O)cc1 (stereo not shown)	11.5
Cc1ccc(-c2cc(C(=O)Nc3ccc(S(=O)(=O)Nc4onc(C)c4C)cc3)[nH]n2)c(O)c1	-5.74
COc1ccc(S(=O)(=O)N/N=C\c2ccc([N+](=O)[O-])o2)c(OC)c1	9.89
CCC(=O)Nc1ccc(NC(=O)CSc2nnc(-c3ccco3)n2C)cc1	10.6
Cc1nc(NC(=O)C2CC2)sc1C(=O)NC1CCCCC1	16.8
NC(=O)C1C(c2ccccc2)=C1c1ccccc1	21.6
Cc1ccc(-c2nc(NCc3ccco3)n(S(C)(=O)=O)n2)cc1	12.9
CCc1cccc2c(C(=O)CN3C(=O)NC4(CCCCCC4)C3=O)c[nH]c12	1.99
O=C1C2C3CCC(O3)C2C(=O)N1CCO (stereo not shown)	-1.17
CCN1CCN(CC(c2ccccc2)c2ccccc2)CC1	-44.7
CS(=O)(=O)Nc1ccc(C(=O)Nc2ccccc2-c2ccccc2)cc1	-65.9
COc1cc(C)nc(N(Cc2ccccc2)S(=O)(=O)c2ccccc2)n1	0.102
Cc1ccc(C(=O)C[n+]2cccc3ccccc32)cc1.[Br-]	-9.35
CN=C1SC(CC(=O)Nc2cccc(Cl)c2Cl)C(=O)N1C (stereo not shown)	-7.05
CCOc1ccc(-c2nnn(CC(=O)Nc3cc(OC)ccc3OC)n2)cc1OCC	2.93
O=C(Nc1cccc(C(=O)O)c1)/C(=C/c1cccc([N+](=O)[O-])c1)NC(=O)c1cccc(Br)c1	19.2
CCOc1ccc(Nc2oc(-c3cccs3)nc2C#N)cc1	14.5
CCOC(=O)CCNC(=O)N1CCCC(CCC(=O)N(C)CCc2ccccn2)C1 (stereo not shown)	-52.3

Structure (SMILES)	hERG current change (%, negative = inhibition) at 10uM [%]
CCOc1ncccc1C(=O)Nc1cccc(-c2nnc3n2CCCCC3)c1	-19.6
COc1cccc(CNn2cnnc2)c1O	12.8
CC1=C(C(N)=O)C(c2ccc(Cl)cc2)n2nc(CCCO)nc2N1 (stereo not shown)	16.9
O=c1[nH]c2ccccc2cc1CN(CC1CCCO1)S(=O)(=O)c1ccc(Cl)cc1 (stereo not shown)	-75.1
NC(=O)c1ccc(NC(=O)COC(=O)/C=C/c2cccs2)cc1	14.6
CC(C)Cc1ccc(CN2CCCC(NC(=O)CCN3CCCCC3=O)C2)cc1 (stereo not shown)	-45.3
Cc1c(NC(=O)C(C)OC(=O)c2nc(Cl)ccc2Cl)c(=O)n(-c2ccccc2)n1C (stereo not shown)	12.5
O=C(O)C1CCCCC1C(=O)Nc1ccccc1C(=O)N1CCN(c2ccc(F)cc2)CC1 (stereo not shown)	2.56
Cc1cc(NC(=O)Nc2ccc(F)cc2)no1	-8.3
CC(=O)c1cccc(CN2CCC(n3nccc3NC(=O)CCOc3ccccc3)CC2)c1	-3.2
Cc1c(OC(=O)N(C)C)ccc2c1O/C(=C\c1ccco1)C2=O	12
CCOc1c2ccc(C(=O)NCc3cc(C(F)(F)F)cc(C(F)(F)F)c3)cc2nn1CCOC	-7.2
COCc1cc(C)n(CC(=O)Nc2ccc(N3CCOCC3)cc2)c(=O)c1C#N	10.5
Cc1ccc(CNC(=O)c2ccccc2N(C)S(C)(=O)=O)cc1	-7.38
CC1CCCC(C)N1C(=O)CSc1nnnn1Cc1ccccc1 (stereo not shown)	-3.54
CCN1CCN(C(=O)C2CCN(S(=O)(=O)N3CCC4(CC3)OCCO4)CC2)CC1	17.6
COC(=O)[C@H](CCSC)NC(=O)NCc1ccccc1F	-3.01
CC(Oc1ccc(-c2ccccc2)c(F)c1)c1ccn(S(=O)(=O)c2cccc3ccccc23)n1 (stereo not shown)	-3.2
CN(Cc1ccccc1)C(=O)CCS(=O)(=O)c1cc2c(cc1Cl)NC(=O)CO2	-38.9
Cc1cccc2c1cnn2C(=O)Nc1ccccc1Cl	17.9
COc1ccc(-c2nnc3sc(C4CCCCC4)nn23)cc1OC	-51.1
